The source of these data is a collection of fitness landscapes (doi:10.1016/j.celrep.2020.107928).

To fix the notation:
B1: Caulobacter ParB omega fusion; a variant is named by its letters at X, in order, B8GW30 (parent)
chain: MESVVVGEPGMSEGRRGLGRGLSALLGEVDAAPAQAPGEQLGGSREAPIEILQRNPDQPRRTFREEDLEDLSNSIREKGVLQPILVRPSPDTAGEYQIVAGERAWRAAQRAGLKTVPIMVRELDDLAVLEIGIIENVQRADLNVLEEALSYKVLMEKFERTQENIAQTIGKSXSHVANXMRLLXLPDEVQSYLVSGELTAXHARAIAAAADPVALAKQIIEGGLSVRETEALARKAPNLSAGKSKGGRPPRVKDTDTQALESDLSSVLGLDVSIDHRGSTGTLTITYATLEQLDDLCNRLTRGI

In all, about 81,000 sequences were measured (“one-hybrid fitness for binding parS DNA”: median about -0.17, highest 2% from about 0.51 on). This is one part of the list. Some results are limits rather than exact numbers.

This assay covers variants of B1. The experiment in a line: one-hybrid fitness for binding parS DNA (scaled: cognate 1, non-cognate 0); higher = stronger binding. As to conditions: with parS DNA site. A digest of the protocol:
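Caulobacter ParB libraries with four specificity codons randomised were screened by bacterial one-hybrid selection in the E. coli USO strain, using a HIS3 reporter whose site lies 19 bp from the promoter. Selection ran for 48 hours at 37°C on M9 lacking histidine, with 0.1 mM IPTG and 5 mM 3-AT. Plasmids were Illumina-sequenced before and after selection, three replicate libraries were pooled, and variants with under 10 reads were dropped. Fitness is the log change in each variant's read ratio to wild type, rescaled against the cognate and non-cognate sites.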
Regarding SVCY, the “one-hybrid fitness for binding parS DNA” value was at most 0.2.

For the variant QEEL, the “one-hybrid fitness for binding parS DNA” value is at most 0.2. For GQQI the value was at most 0.2.

With LHQT, the “one-hybrid fitness for binding parS DNA” value is at most 0.2. As to DWDS, the “one-hybrid fitness for binding parS DNA” value was at most 0.2. Under HVRF stands at most 0.2. For HLIY the value was at most 0.2; for YVTA, at most 0.2; for FRIL, at most 0.2. Take HSTC: the “one-hybrid fitness for binding parS DNA” value is at most 0.2. Regarding AAHS, the “one-hybrid fitness for binding parS DNA” value was at most 0.2.

AQTS: the “one-hybrid fitness for binding parS DNA” value is at most 0.2.

Regarding VEIS, the “one-hybrid fitness for binding parS DNA” value was at most 0.2. For RWDW the value was at most 0.2; for ISLG, at most 0.2; for PWME, at most 0.2.

For the variant VKTR, the “one-hybrid fitness for binding parS DNA” value is at most 0.2. For NEHV the value was at most 0.2. For DRTV, the “one-hybrid fitness for binding parS DNA” value was at most 0.2.

Turning to ADNM, the “one-hybrid fitness for binding parS DNA” value was at most 0.2. Under QHHM stands at most 0.2; under RSMS, 0.994; under QLNY, at most 0.2. For HTYA the value was at most 0.2. Under PQRT stands at most 0.2; under SHHF, at most 0.2. Take IGRC: the “one-hybrid fitness for binding parS DNA” value is at most 0.2.

As to FPAH, the “one-hybrid fitness for binding parS DNA” value is at most 0.2. Under TMWT stands at most 0.2; under VFIG, at most 0.2.

For LPLR, the “one-hybrid fitness for binding parS DNA” value was at most 0.2.

For LPER, the “one-hybrid fitness for binding parS DNA” value is at most 0.2.

RSGP: the “one-hybrid fitness for binding parS DNA” value is at most 0.2. For CQPN the value was at most 0.2; for AIRM, at most 0.2; for MHWM, 0.223. For PRRQ the value was at most 0.2. GCNR: the “one-hybrid fitness for binding parS DNA” value was at most 0.2. Turning to RYIK, the “one-hybrid fitness for binding parS DNA” value is at most 0.2. Under DKLP stands at most 0.2; under GALK, at most 0.2. For IVDI the value was at most 0.2. For YIVR the value was at most 0.2; for CIQT, at most 0.2; for HSLI, at most 0.2. On to ARVA, for which the “one-hybrid fitness for binding parS DNA” value was at most 0.2. Take IETA: the “one-hybrid fitness for binding parS DNA” value was at most 0.2. TGKA: the “one-hybrid fitness for binding parS DNA” value was at most 0.2.

With RIDY, the “one-hybrid fitness for binding parS DNA” value was found to be 0.396. Take IKAI: the “one-hybrid fitness for binding parS DNA” value is at most 0.2. Turning to NCSK, the “one-hybrid fitness for binding parS DNA” value was at most 0.2.

With FETL, the “one-hybrid fitness for binding parS DNA” value is at most 0.2. HMRR: the “one-hybrid fitness for binding parS DNA” value is at most 0.2. Under SFRY stands at most 0.2; under QPLR, at most 0.2; under RIWR, at most 0.2.

In the case of LPFR, the “one-hybrid fitness for binding parS DNA” value was at most 0.2. As to RDMD, the “one-hybrid fitness for binding parS DNA” value was at most 0.2. As to KRHG, the “one-hybrid fitness for binding parS DNA” value is at most 0.2. For HRVI the value was at most 0.2. As to KTSF, the “one-hybrid fitness for binding parS DNA” value was at most 0.2. Regarding EAKN, the “one-hybrid fitness for binding parS DNA” value is at most 0.2. Consider CQNR, for which the “one-hybrid fitness for binding parS DNA” value is at most 0.2. Under CECG stands at most 0.2; under QIRY, at most 0.2. For THVQ the value was at most 0.2; for AQPD, at most 0.2; for ACTR, at most 0.2. Turning to VPLR, the “one-hybrid fitness for binding parS DNA” value is at most 0.2. Take VGTC: the “one-hybrid fitness for binding parS DNA” value was at most 0.2. Turning to VYTN, the “one-hybrid fitness for binding parS DNA” value is at most 0.2. For QMAW the value was at most 0.2; for RSSH, at most 0.2. For the variant QMPM, the “one-hybrid fitness for binding parS DNA” value is at most 0.2. Under HMLH stands at most 0.2. Consider GYEC, for which the “one-hybrid fitness for binding parS DNA” value was at most 0.2.

With CNTI, the “one-hybrid fitness for binding parS DNA” value is at most 0.2.
